For 53 molecules, activation results are on record in PubChem BioAssay AID1346428 (National Center for Advancing Translational Sciences (NCATS), 2018).

The whole screen tested about 48,000 compounds, of which about 1,200 (2.5%) were called active. Another 2% or so got no clear call; they are omitted.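 How the source made its calls: active means activation of at least 60% and not above a set upper limit (about 1 call in 100 departs from these limits); inconclusive means activation of 40% to 60%, or above that upper limit; inactive means activation under 40%.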 The list shows a part of the results.

This assay concerns the target Probable G-protein coupled receptor 32 (Homo sapiens) (UniProt O75388). As to the kind of experiment: qHTS for Agonists of Human Resolvin D1 Receptor DRV1. Further: 0% is about no effect. The conditions noted are these: CHO-K1 GPR32 beta-arrestin PathHunter luminescence, 90 min; at 76.9 µM; stronger effect = higher value; zero percent set by DMSO-only wells. A digest of the protocol: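 GPR32 activation in stably transfected CHO-K1 cells, detected as beta-arrestin recruitment by enzyme-fragment complementation. Compound exposure: 90 min, 37 °C.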
UniProt O75388, sequence (O75388 whole entry, looked up, the tested form may be a part): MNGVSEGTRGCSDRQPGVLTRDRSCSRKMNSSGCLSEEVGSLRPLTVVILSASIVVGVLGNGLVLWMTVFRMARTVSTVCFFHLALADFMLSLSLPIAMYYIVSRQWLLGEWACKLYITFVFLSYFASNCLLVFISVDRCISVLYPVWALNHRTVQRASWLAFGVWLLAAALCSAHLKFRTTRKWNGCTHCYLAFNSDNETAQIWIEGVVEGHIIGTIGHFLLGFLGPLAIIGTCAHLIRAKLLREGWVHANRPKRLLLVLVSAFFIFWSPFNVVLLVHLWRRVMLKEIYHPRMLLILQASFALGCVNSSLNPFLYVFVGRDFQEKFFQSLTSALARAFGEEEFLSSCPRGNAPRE
A general note: qHTS replaces the single test concentration by a dilution series.
For `Cc1ccc2nc(N3CCN(c4ccccc4)CC3)c3nnnn3c2c1`, the activation was inactive: -1.86%.
Consider `CCc1cccc(NC(=O)c2cn3c4c(ccc(Cl)c4c2=O)OC(C)C3)c1` (stereo not drawn), for which the activation is inactive: 5.61%.
For the molecule `COc1cc2cc(CNc3ccccc3)c(=O)n(CC(=O)Nc3ccccc3)c2cc1OC`, the activation was inactive: -58.5%.
Consider `C#CCn1c(=O)c2c(ncn2C)n(C)c1=O`, for which the activation was inactive: -1.53%.
As for `COc1ccc(N2CCN(C(=O)c3cccc(-n4c(C)nc5cccnc54)c3)CC2)cc1`, the activation is inactive: 27.9%.
Regarding `CC1CCCCN1C(=O)Cn1c(=O)n(-c2ccc(Cl)cc2)c(=O)c2c3c(sc21)CCC3` (stereo not drawn), the activation was inactive: 5.03%.
With `COc1cccc(NC(=O)Cn2c(=O)cc(C)c3c(C)nn(-c4cccc(F)c4)c32)c1` the figure was inactive: -11.8%.
As for `COc1cccc(NC(=O)C2CCN(S(=O)(=O)c3cccc4nonc34)CC2)c1`, the activation is inactive: 14.8%.
With `COc1ccc(CNC(=O)c2ccc(NC(=O)N3CC4CCCN4c4ccccc43)cc2)cc1` (stereo not drawn) the figure was inactive: -30.4%; with `CCN1CCN(C(c2ccc(OC)cc2)c2c(O)cc(C)n(Cc3ccco3)c2=O)CC1` (stereo not drawn), inactive: -11.9%; with `CCN(CC)c1nc2c(-c3cccc(Br)c3)nnn2c2ccccc12`, inactive: 0.48%.
With `Cc1ccc(-n2ncc(C(=O)NCCc3ccccc3)c2C2CCN(C(=O)OC(C)(C)C)CC2)c(C)c1`, the activation was inactive: -18.3%.
Take `CCOC(=O)C1CCN(S(=O)(=O)c2cc3c4c(c2)CC(=O)N4CCC3)CC1`: the activation was inactive: -26.8%.
The figure for `O=C(NCCc1ccccc1Cl)c1ccc2c(c1)nc1n2CCOC1` is inactive: -7.03%.
Take `O=C(CSc1nc2c(c(=O)[nH]1)CN(Cc1ccc(F)cc1)CC2)Nc1ccccc1Cl`: the activation is inactive: 47.2%.
Take `CCN(CC)CCNC(=O)c1nn(-c2ccc(OC)c(Cl)c2)c(=O)c2c1c1ccccc1n2C`: the activation is inactive: 7.71%.
The figure for `O=C(NCCc1ccccc1)C1(c2cccs2)CCOCC1` is inactive: 1.32%; for `CN(C)S(=O)(=O)n1cc(/C=C(\NC(=O)c2ccccc2Cl)C(=O)NCCCn2ccnc2)c2ccccc21` it is inactive: 18.7%.
With `COc1cc(OC)cc(-c2nc3nc(C)c(CCC(=O)Nc4ccc(F)cc4F)c(C)n3n2)c1` the figure was inactive: 0.366%; with `CCc1nn(C(C)C(=O)N2CCN(c3cccc(C(F)(F)F)c3)CC2)c(=O)c2cc3occc3n12` (stereo not drawn), inactive: 8.73%; with `COc1cccc(C(=O)N2c3nc(-c4ccco4)nn3C3(CCCCC3)[C@@H]3CCCC[C@@H]32)c1`, inactive: -36.5%.
The figure for `CCCNC(=O)c1c(C)nn(-c2cccc(C)c2)c1-n1cccc1` is inactive: -8.29%; for `CCc1ccccc1NC(=O)CSCc1cnn(-c2ccccc2)c1-n1cccc1` it is inactive: -1.02%; for `Cc1ccc(Cn2cc(C(=O)c3ccc(F)cc3)c(=O)c3cc4c(cc32)OCCO4)cc1` it is inactive: -5.85%.
`CCOc1ccccc1CNCCNC(=O)c1nonc1N`: the activation is inactive: 14.9%.
With `COc1cc(OC)c(NC(=O)CC(c2cccs2)N2Cc3ccccc3C2=O)cc1Cl` (stereo not drawn) the figure was inactive: -7.13%; with `Cc1ccc2ncc3c(-c4ccc(F)cc4)nn(-c4cccc(F)c4)c3c2c1`, inactive: -16.7%.
With `Cc1ccc2c(c1)c1c(c(=O)n(-c3ccccc3C)c(=O)n1CC(=O)N1CCCC1)n2C` the figure was inactive: -0.0271%; with `Cc1ccccc1Nc1sc(C(=O)c2ccccc2)c(N)c1C(=O)NCc1ccc(Cl)cc1`, inactive: -67.8%; with `COc1ccc(C)cc1NC(=O)C1CCN(S(=O)(=O)c2c(C)noc2/C=C/c2ccco2)CC1`, inactive: -33%.
`C#C[C@]1(O)CC[C@H]2[C@@H]3CCC4=CC(=O)CC[C@@H]4[C@H]3CC[C@@]21CC`: the activation is inactive: -0.415%.
`O=C(Nc1ccc(F)cc1F)C(Cc1ccccc1)N1Cc2ccccc2C1=O` (stereo not drawn): the activation was inactive: -14.9%.
With `COc1cccc(-n2c(-c3ccc(Cl)cc3)cc3c2CC(C)(C)CC3=O)c1` the figure was inactive: -15.5%; with `COc1cc2c(=O)n(Cc3ccccc3Cl)c(=O)n(CC(=O)Nc3ccccc3)c2cc1OC`, inactive: 8.88%; with `O=C(CCC(=O)N1CC2CCCN2c2ccccc21)NCc1cccc(Cl)c1` (stereo not drawn), inactive: -25.8%.
`Cc1ccc(-c2nnc(SCC(=O)NC3CCCC3)nc2-c2ccc(C)cc2)cc1`: the activation is inactive: -26.4%.
Regarding `Cc1ccc(C(=O)Nc2nc3ccc(S(=O)(=O)N4CCCC4)cc3s2)cc1`, the activation was inactive: 24.2%.
In the case of `CCOc1ccc(NC(=O)CCC(=O)N2CC(C)Oc3ccc(C)cc32)cc1` (stereo not drawn), the activation is inactive: -6.51%.
With `COc1ccc(CN2C(=O)c3oc4ccc(F)cc4c(=O)c3C2c2ccc(O)cc2)cc1` (stereo not drawn), the activation was inactive: -0.289%.
On to `N#CC(=C(\N)Sc1ccccc1N)/C(C#N)=C(/N)Sc1ccccc1N`, for which the activation is inactive: 9.34%.
For `CCCCn1cc2c(c1-c1ccccc1Br)c(=O)n(C)c(=O)n2C`, the activation is inactive: -32.9%.
`Cc1nc(N2CCOCC2)c2c(C(=O)NCCc3ccccc3)c(C)oc2n1`: the activation is inactive: -13.7%.
As for `O=C(/C=C/c1ccccc1)NCCO`, the activation was inactive: 18.4%.
The figure for `Cc1ccc(C(=O)n2nc(-c3ccco3)nc2NCc2cccs2)cc1` is inactive: -1.35%; for `N#C/C(=C\c1ccc(O)c(O)c1)C(=O)NCc1ccccc1` it is inactive: -21.5%.
In the case of `Cc1ccc(NC(=O)C2CCCN(c3ncnc4onc(-c5ccc(F)cc5)c34)C2)c(Cl)c1` (stereo not drawn), the activation is inactive: 8%.
Regarding `CCCCOc1cccc(C(=O)Nc2cccc(-c3nc4ncccc4o3)c2C)c1`, the activation was inactive: 4.74%.
Take `CCOC(=O)C1=C(C)NC(=O)NC1c1cn(-c2ccccc2)nc1-c1ccc(OCC)cc1` (stereo not drawn): the activation is inactive: 29.1%.
With `CCC(C)NC(=O)Cn1ccc2cc(S(=O)(=O)N3CCCCC3)ccc21` (stereo not drawn) the figure was inactive: -14.8%.
The figure for `CSc1ncc(C(=O)N2CCN(c3cc(C)ccc3C)CC2)c(C)n1` is inactive: 37.3%; for `Cc1cccc(N2CCN(C(=O)CN3C(=O)COc4ccc(S(=O)(=O)N5CCCCCC5)cc43)CC2)c1C` it is inactive: -13.2%.
For `Cc1oc(-c2ccc(C(=O)NCc3ccc(Cl)cc3)cc2)nc1CS(=O)(=O)c1ccccc1`, the activation is inactive: 3.88%.
`CCn1c(=N)c(C(=O)NCc2ccccc2)cc2c(=O)n3cc(C)ccc3nc21`: the activation was inactive: 13.8%.
